Measured values from PubChem BioAssay AID686979 (National Center for Advancing Translational Sciences (NCATS), 2013).
About 50,000 (12%) of roughly 420,000 compounds were called active. Inconclusive means that the source gave no clear call. Such entries were picked first, then a sample of the others. Calls come from the whole dose curve; as a rule, active = well fitted inhibition curve with a large enough effect; inconclusive = small, poorly fitted or top-dose-only effect; inactive = flat fitted curve, though single readings scatter. No potency is given beside an inconclusive call; the fits are too rough.

Assay: qHTS for Inhibitors of human tyrosyl-DNA phosphodiesterase 1 (TDP1): qHTS in cells in presence of CPT; note: nearly all actives have a fitted effect of over 55% in size
Details: chicken DT40 Tdp1-/-;hTDP1 cells + 20 nM CPT, ATP luminescence, 48 h; series mostly up to 46.2 µM
Method in brief: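 Chicken DT40 Tdp1-/- cells complemented with human TDP1, 400 cells/well, exposed to compounds plus 20 nM camptothecin for at least 48 h at 37 C; viability read as ATP content by CellTiter-Glo luminescence.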
Potency is the fitted concentration of half-maximal effect; tags give direction and shape of the fitted curve.

| Compound | Potency |
| --- | --- |
| Cc1ccccc1CSCc1nc(N)nc(Nc2ccccc2C)n1 | inconclusive [inhibitor, single point] |
| CCOC(=O)C(C)Oc1cccc2c(=O)n(CC(=O)Nc3ccc(OCC)cc3)ccc12 (centres undefined) | inconclusive [inhibitor, single point] |
| COc1ccccc1CNC(=O)c1ccc2c(c1)N(Cc1c(F)cccc1Cl)C(=O)CS2 | inconclusive [inhibitor, single point] |
| Cc1cccc(N2CCN(C(=S)NC3CCCCC3)CC2)c1C | inconclusive [inhibitor, single point] |
| CCOc1cc(C2NN=C(c3ccccc3)S2)ccc1OCc1ccccc1Cl (centres undefined) | inconclusive [inhibitor, single point] |
| COc1ccc2[nH]c(=O)c(CN(CCN(C)C)C(=O)NCc3ccccc3)cc2c1 | inactive |
| CC(C)CC(=O)N/C(N)=N/c1nc2ccccc2s1 | active: 23.1 µM |
| COc1ccc2oc(C(=O)N(C)Cc3ccc(OC(F)F)cc3)c(C)c2c1 | inactive |
| O=C(NN=C1CCCC1)c1n[nH]c2c1CCC2 | inactive |
| COc1cc(NS(=O)(=O)c2cc3c(cc2C)NC(=O)CO3)cc(OC)c1 | inconclusive [inhibitor, single point] |
| Cc1cc(C)cc(C(=O)NN2CCOCC2)c1 | inactive |
| CC1CCN(C(=O)CSc2nc3ccccc3nc2Cc2ccccc2)CC1 | active: 14.6 µM |
| CCCCN(C)Cc1c(C)[nH]c2c(ccc3ccccc32)c1=O | inactive |
| COc1cc(C(=O)NCc2cc(C)nc3ccccc23)cc(OC)c1OC | inactive |
| COC(=O)Nc1ccc(SCC(=O)c2ccc(Cl)cc2)cc1 | inconclusive [inhibitor, partial curve] |
| O=C(NC(=S)N1CCc2ccccc21)c1ccccc1Br | active: 18.4 µM |
| CCOC(=O)Nc1ccc2nc(Sc3ccc(Cl)cc3)sc2c1 | active: 5.8 µM |
| Cc1oc(/N=C/c2ccc(O)cc2O)c(C#N)c1C | inconclusive [inhibitor, single point] |
| COC(=O)c1ccc(NC(=O)Cn2nc(C)cc2C)cc1 | inactive |
| NNC(=O)C12CC3CC(C1)CC(n1ncnn1)(C3)C2 | inactive |
| O=S(=O)(Cc1ccccc1)NC1c2ccccc2Oc2ccccc21 | active: 14.6 µM |
| COc1cccc(NC(=O)Cn2c(=O)n(CCCCC(=O)NCc3ccccc3Cl)c(=O)c3ccccc32)c1 | inconclusive [inhibitor, single point] |
| CC(C)n1cnc2c(Nc3cccc(F)c3)nc(NCCO)nc21 | inactive |
| Cc1ccc(NC(=O)COC(=O)CC2CCCC2)cc1F | inactive |
| Cc1ccccc1CN1C[C@@H]2C[C@@H](c3cn[nH]c3-c3ccc(F)cc3)N3CCC[C@@]23C1=O | active: 18.4 µM |

| Compound | Potency |
| --- | --- |
| COc1cc(OC)c(OC)cc1/C=C/c1nc2ccccc2o1 | inconclusive [inhibitor, single point] |
| C=CCOc1ccc(CN(C)CC(O)COc2ccc(CCC(C)=O)cc2)cc1 (centres undefined) | inconclusive [inhibitor, single point] |
| O=C(CCC1CCCC1)Nc1ccc(C(=O)NCc2cccnc2)cc1 | active: 14.6 µM |
| CCCOC(=O)C1=C(C)N(C)C(=O)NC1c1cc2c(cc1[N+](=O)[O-])OCO2 (centres undefined) | inconclusive [inhibitor, single point] |
| Cc1ccc(CNC(=O)Cn2c3ncccc3c(=O)n2-c2ccc(C)cc2)cc1 | active: 20.6 µM |
| O=C(C1CCC1)N(CCc1ccccc1)Cc1nc2ccccc2c(=O)[nH]1 | inconclusive [inhibitor, single point] |
| COc1ccc2[nH]c3c(c2c1)CCNC3=O | inconclusive [inhibitor, partial curve] |
| CCc1ccc(OCC2NCCc3cc(OC)c(OC)cc32)cc1 (centres undefined) | inconclusive [inhibitor, single point] |
| CCOc1ccc(CNC(=O)CSc2c3c(nc4ccc(Cl)cc24)CCCC3)cc1 | inactive |
| COc1ccccc1N1CCN(c2cc(C)nc3nncn23)CC1 | inconclusive [inhibitor, single point] |
| S=C(NCCc1ccccc1)Nc1ccc(Cl)cc1Cl | inconclusive [inhibitor, partial curve] |
| O=C(NCCc1nc2ccccc2n1CCOc1ccc2ccccc2c1)C1CCCCC1 | inconclusive [inhibitor, single point] |
| CC(C)c1cc(-c2nc(-c3cccc(Cl)c3)no2)n[nH]1 | inconclusive [inhibitor, single point] |
| O=C(Nc1ccc(-c2ccc3nncn3n2)cc1)C1CCCCC1 | inactive |
| CCOc1ccc(N=c2scc(-c3ccccc3)n2CCO)cc1 | active: 16.4 µM |
| O=C(Nc1nc(-c2ccc(S(=O)(=O)N3CCCC3)cc2)cs1)c1cccs1 | inconclusive [inhibitor, single point] |
| CC(=O)N1N=C2c3ccccc3CCC2C1c1cccs1 (centres undefined) | inconclusive [inhibitor, single point] |
| CCN(CC)CCCNC(=O)c1cc2c(-c3cccc(OC)c3)nn(C)c2s1 | inconclusive [inhibitor, single point] |
| COc1ccc(Cc2nnc(SCC(=O)Nc3ccc(C)c(C)c3)o2)cc1OC | inactive |
| COc1cc(Cn2c3ccc(NC(=O)CCc4ccc(O)cc4)cc3c(=O)n2C)ccc1F | inconclusive [inhibitor, single point] |
| O=c1[nH]c2ccc(S(=O)(=O)N3CCC(Cc4ccccc4)CC3)cc2o1 | inconclusive [inhibitor, single point] |
| CCC(=O)Nc1ccc(C(=O)N/N=C/c2c(C)[nH]c3ccccc23)cc1 | inactive |
| COc1ccc(C(=O)NC(Cc2ccc(OC(=O)c3ccc(OC)cc3)cc2)C(=O)O)cc1 (centres undefined) | inactive |
| CCC(Sc1nc2n[nH]c(C)c2c(=N)n1-c1cc(Cl)ccc1C)C(=O)N1CCOCC1 (centres undefined) | inconclusive [inhibitor, single point] |
